Sequences and labels used below:
B1: LINE1-full (parent)
chain: UACGUAGGUGGUUUUCCCCUGAUAGUGCUAAGGGGGCCUGGAAGUUUGGACUGGGCAGAGCUCAACACAGCGUGGCAAAGUGGCUGUGGCUAGACUGCCUCUCUGGAUUCCUCGUCACUCAGCAGGGCAUCUCUGAGAGAAAUGCC

Read counts are not given, so values of variants with three or more changes are uncertain.

The variants in this data set derive from B1. Description: self-cleavage, relative activity (ratio to wild type); higher = more cleavage; in vitro, sequencing; the parent is a self-cleaving ribozyme.
On to UACGUAGGUGGUUUUCCCCUGGUAGUGCUAAGGGGGCCUGGAAGUUUGGACUGGGCAGAGCUCAACGCAGCGUGGCAGAGUGGCUGUGGCUAGACUGCCUCUCUGGAUUCCUCGUCACUCAGCAGGGUAUCUCUGAGAGGAAUGCC, for which the self-cleavage worked out at 0.49. UACGUAGGUGGUUUUCCCCUGGUAGUGCUAAGGGGGCCUGGAAGUUUGGACUGGGCAGAGCUCAACACAGCGUGGCAAAGUGGCUGUGGCUAGACUGCCUCUCUGGGUUCCUCGUCACUCAGCAGGGCAUCUCUGAGAGAAAAGCC: the self-cleavage was 0.77. As to UACGUAGGUGGUUUUCCCCUGGUAGUGCUAAGGGGGCCUGGAAGUUUGGACUGGGCAGAGCUCAGCACAGCGUUGCAAAGUGGCGGUGGCUAGACCGCCUCUCUGGAUUCCUCGUCACUCAGCAGGGCAUCUCUGAGAGAAAUGCC, the self-cleavage was determined as 0.77. As for UACGUAGGUGGUUUUCCCCUGGUAGUGCUAAGGGGGCCUGGAAGUUUGGACUGGGCAGAGCUCAACACAGCGUGGCAAAGUGGCUGUGGCUAGGCUGCCUCCCUGGAUUCCUCGUCACUCAGCAGGGCAUCUCUGAGAGAAAUGCC, the self-cleavage stood at 0.92. As to UACGUAGGUGGUUUUCCCCUGGUAGUGCUAAGGGGGCCUGGAAGUUUGGACUGGGCAGAGCUCAACACAGCGUGGCAAAGUGGCUGUGGCUGGACUGCCUCUCUGGAUUCCUCGCCACUCUGCAGGGCAUCUCUGAGAGAAAUGCC, the self-cleavage was 0. With UACGUAGGUGGUUUUCCCCUGGUAGUGCUAAGGGGGCCUGGAAGUUUGGACUGGGCAGAGCUCAGCACAGCGUGGCAAAGUGGCUGUGGCUAGACUGCCUCUCUGGAUUCCUCGUCACUCAGCAGGGCAUCUCUGAGAGAGAUGCC, the self-cleavage was 0.06. For the variant UACGUAGGUGGUUUUCCCCUGGUAGUGCUAAGGGGGCCUGGAAGUUUGGACUGGGCAGAGCUCAACGCAGCGUGGCAAAGUGGCUGUGGCUAGACUGCCUCUCUGGGUUCCUCGUCACUCAGCAGGGCAUCUCUGAGAGAAAUGCC, the self-cleavage stood at 0.

Turning to UACGUAGGUGGUUUUCCCCUGGUAGUGCUAAGGGGGCCUGGAAGUUUGGACUGGGCAGAGCUCAGCACAGCGUGGCAAAGUGGCUGUGGCUAGACUGCCUCUCUGGAUUCCUCGACACUCAGCAGGGGAUCUCUGAGAGAAAUGCC, the self-cleavage came out at 0.22. As for UACGUAGGUGGUUUUCCCCUGGUAGUGCUAAGGGGGCCUGGAAGUUUGGACUGGGCAGAGCUCAACACAGCGUGGCGAAGUGGCUGUGGCUGGACUGCCUCUCUGGAUUCCUCGUCACUCAGCUGGGCAUCUCUGAGAGAAAUGCC, the self-cleavage was 0. As for UACGUAGGUGGUUUUCCCCUGGUAGUGCUAAGGGGGCCUGGAAGUUUGGACUGGGCAGAGCUCAACACAGCGUGGCGAAGUGGCUGUGGCUAGACUGCCUCUCUGGAUUCCUCGUCACCCAGCAGGGCAUCUCUGAGAGAAAUGCC, the self-cleavage came to 1.95.

With UACGUAGGUGGUUUUCCCCUGGUAGUGCUAAGGGGGCCUGGAAGUUUGGACUGGGCAGAGCUCAGCUCAGCGUGGCAAAGUGGCUGUGGCUAGACUGCCCCUCUGGAUUCCUCGUCACUCAGCAGGGCAUCUCUGAGAGAAAUGCC, the self-cleavage was 0. As to UACGUAGGUGGUUUUCCCCUGGUAGUGCUAAGGGGGCCUGGAAGUUUGGACUGGGCAGUGCUCAACACAGCGUGGCAAAGUGGCUGUGGCUAGACUGCCUCUCUGGAUUCCUCGUCACUCAGCAGGGCACCUCUGAGAGAAAUGCC, the self-cleavage came out at 0.27. As for UACGUAGGUGGUUUUCCCCUGGUAGUGCUAAGGGGGCCUGGAAGUUUGGACUGGGCAGAGCUCAACACAGCGUGGCUAAGUGGCUGUGGCUAGACUGCCUCUCUGGAUUCCUCGUCACUCAGCAGGGCAUCUCUGAGAGAAAUGUC, the figure is 0.65. For UACGUAGGUGGUUUUCCCCUGGUAGUGCUAAGGGGGCCUGGAAGUUUGGACUGGGCAGAGCUCAACACAGCGUGGCUAAGUGGCAGUGGCUAGACCGCCUCUCUGGAUUACUCGCCACUCAGCAGGGCAUCUCUGAGAGAAAUGCC, the self-cleavage turned out to be 0.04. For the variant UACGUAGGUGGUUUUCCCCUGGUAGUGCUAAGGGGGCCUGGAAGUUUGGACUGGGCAGAGCUCAGCACAGCGUGGCAAAGUGGCUGUGGCUAGACUGCCUCUCUGGGUUCCUCGUCACUCAGCAGGGCAUCUCUGAGAGAAAUGCC, the self-cleavage amounted to 0.

For UACGUAGGUGGUUUUCCCCUGGUAGUGCUAAGGGGGCCUGGAAGUUUGGACUGGGCAGAGCUCAACACAGCGUGGCAGAGUGGCUGUGGCUAGACUGCCUCUCUGGAUUCCUCGUCACUCAUCAGGGCAUCUCUGAGAGAAAUGCC, the self-cleavage came out at 0.56. As for UACGUAGGUGGUUUUCCCCUGGUAGUGCUAAGGGGGCCUGGAAGUUUGGACUGGGCAGAGCUCAACACGGCGUGGCAAAGUGGCAGUGGCUAGACUGCCUCUCUGGAUUCCUCGUCACUCAGCAGGGCAUCUCCGAGAGAAAUGCC, the figure is 0; as for UACGUAGGUGGUUUUCCCCUGGUAGUGCUAAGGGGGCCUGGAAGUUUGGACUGGGCAGAGCUCAACACAGCGUGGCAAAGUGGCUGUGGCUAGACUGCCUCUCUGGAUUCCUCGUCACUCGGCAGGGCAUCACUGAGAGAAAUGCC, 1.61; as for UACGUAGGUGGUUUUCCCCUGGUAGUGCUAAGGGGGCCUGGAAGUUUGGACUGGGCAGAGCUCAACGCAGCGUGGCAGAGUGGCUGUGGCUAGACUGCCUCUCUGGAUUCCUCGUCACUCAGCAGGGCAUCUCUGAGAGAAGUGCC, 0. On to UACGUAGGUGGUUUUCCCCUGGUAGUGCUAAGGGGGCCUGGAAGUUUGGACUGGGCAGAGCUCAACACAGCGUGGCAAAGUGGCUGUGGCUAGACUGCCUCUCUGGAUUCCUCGUCACUCCGCAGGGCAUCUCCGAGAGAAAUGCC, for which the self-cleavage stood at 1.58.

As for UACGUAGGUGGUUUUCCCCUGGUAGUGCUAAGGGGGCCUGGAAGUUUGGACUGGGCAGAGCUCAACUCAGCGUGGCAAAGUGGCUGUGACUAGACUGCCUCUCCGGAUUCCUCGUCACUCAGCAGGGCAUCUCUGAGAGAAAUGCC, the self-cleavage was determined as 0.12.

For UACGUAGGUGGUUUUCCCCUGGUAGUGCUAAGGGGGCCUGGAAGUUUGGACUGGGCAGAGCUCAACACAGCGUGGCAAAGUGGCUGUGGCUAGACUGCCUCUCUGGGUUCCUCGUCACCCAGCAGGGCAUCUCUGAGAGAAAUGCC, the self-cleavage was found to be 0.94. For UACGUAGGUGGUUUUCCCCUGGUAGUGCUAAGGGGGCCUGGAAGUUUGGACUGGGCAGAGCUCAACACCGCGUGGCAAAGUGGCUGUGGCUAGACUGCCUCUCUGGAUUCCUCGUCACUCAGCAGGGCAUCUCUGUGAGAAAUGCC the value was 0.33; for UACGUAGGUGGUUUUCCCCUGGUAGUGCUAAGGGGGCCUGGAAGUUUGGACUGGGCAGAGCUCGACACAGCGUGGCAAAGUGGCUGUGGCUAGACUGCCUCUCUGGAUUCCUCGUCACUCAGCAGGGCAUCUCUGAGAGAAGUGCC, 0.56; for UACGUAGGUGGUUUUCCCCUGGUAGUGCUAAGGGGGCCUGGAAGUUUGGACUGGGCAGAGCUCAACACAGCGUGGCAAAGUGGCUGUGGCUAGUCUGCCUCUCUGGAUUCCUCGUCACUCAGCAGGGCAUCUCUGAGAGAGAUGCC, 0.18. Take UACGUAGGUGGUUUUCCCCUGGUAGUGCUAAGGGGGCCUGGAAGUUUGGACUGGGCAGGGCUCAACACAGCGUGGCAAAGUGGCUGAGGCUAGACUGCCUCUCUGGAUUCCUCGUCACUCAGCAGGGCAUCUCUGAGAGAAAUGCC: the self-cleavage came out at 0.06. For UACGUAGGUGGUUUUCCCCUGGUAGUGCUAAGGGGGCCUGGAAGUUUGGACUGGGCAGAGCUCGACACAGCGUGGCAAGGUGGCUGUGGCUAGACUGCCUCUCUGGAUUCCUCGUCACUCAGCAGGGCAUCUCUGAGAGAAAUGCC the value was 0. For the variant UACGUAGGUGGUUUUCCCCUGGUAGUGAUAAGGGGGCCUGGAAGUUUGGACUGGGCAGAGCUCAACACAGCGAGGCAAAGUGGCUGUGGCUAGACUGCCUCUCUGGAUUCCUCGUCACUCAGCAGGGCAUCUCUGAGAGAAAUGCC, the self-cleavage was 0.83. As for UACGUAGGUGGUUUUCCCCUGGUAGUGCUAAGGGGGCCUGGAAGUUUGGACUGGGCAGAGCUCAACACAGCGUGGCAAAGUGGCUGUGGCUAGUCUGCUUCUCUGGAUUCCUCGUCACUCAGCAGGGCAUCUCUGAGAGAAAUGCC, the self-cleavage is 0.08. As to UACGUAGGUGGUUUUCCCCUGGUAGUGCUAAGGGGGCCUGGAAGUUUGGACUGGGCAGGGCUCAACACAGCGUGGCAAAGUGGCUGUGGCUAGACUGCCUCUCUGGAUUCCCCGUCACUCAGCAGGGCAUCUCUGAGAGAAGUGCC, the self-cleavage came to 0.22. Regarding UACGUAGGUGGUUUUCCCCUGGUAGUGCUAAGGGGGCCUGGAAGUUUGGACUGGGCAGAGCUCAGCACAGCGUGGCAAAGUGGCUGUGGCUAGACUACCUCUCUGGAUUCCUCGUCACUCAGCAGGGCAUCUCUGAGAGAAAUGCC, the self-cleavage stood at 0.11. As for UACGUAGGUGGUUUUCCCCUGGUAGUGCUAAGGGGGCCUGGAAGUUUGGACUGGGCAGAGCUCGACACAGCAUGGCAAAGUGGCUGUGGCUAGACUGCCUCUCUGGAUUCCUCGUCACUCAGCAGGGCAUCUCUGAGAGAAAUGCC, the self-cleavage stood at 0.41. Regarding UACGUAGGUGGUUUUCCCCUGGUAGUGCUAAGGGGGCCUGGAAGUUUGGACUGGGCAGAGCUCGACACAGCGUGGCAAAGUGGCUGUGGCUAGACUGCCUCUCUGGAUUCCUCUUCACUCAGCAGGGCAUCUCUGAGAGAAAUGCC, the self-cleavage came out at 0.34.

As to UACGUAGGUGGUUUUCCCCUGGUAGUGCUAAGGGGGCCUGGAAGUUUGGACUGGGCAGGGCUCAACACAGCGUGGCAAAGUGGCUGUGGCUAGACUGCCUCUCCGGGUUCCUCGUCACUCAGCAGGGCAUCUCUGAGAGAAAUGCC, the self-cleavage worked out at 0. On to UACGUAGGUGGUUUUCCCCUGGUAGUGCUAAGGGGGCCUGGAAGUUUGGACUGGGCAGAGCUCAGCACAGCGUGGCAAAGUGGCUGUGGCUAGACAGCCUCUCUGGAUUCCUCGUCACUCGGCAGGGCAUCUCUGAGAGAAAUGCC, for which the self-cleavage stood at 0. As for UACGUAGGUGGUUUUCCCCUGGUAGUGCUAAGGGGGCCUGGAAGUUUGGACUGGGCAGAGCUCAACACGGCGUGGCAAAGUGGCUGUGGCUAGACUGCCACUCUGGAUUCCUCGUCACUCAGCAGGGCAUCUCUGAGAGAAAUGCC, the figure is 0.13; as for UACGUAGGUGGUUUUCCCCUGGUAGUGCUAAGGGGGCCUGGAAGUUUGGACUGGGCAGAGCUCAACACAGCGUGGCAAAGUGGCUGUGGCUGGACUGCCUCUCUGGAUUCCUCGUCACUCAGCAGGGCACCUCUGAGAGAAAUGCC, 0.57. As for UACGUAGGUGGUUUUCCCCUGGUAGUGCUAAGGGGGCCUGGAAGUUUGGACUGGGCAGAGCUCAACACAGCGUGGCAAAGUGGCUGUGGCUGGACUGCCCCUCUGGAUUCCUCGUCACUCAGCAGGGCAUCUCUGGGAGAAAUGCC, the self-cleavage worked out at 0.46. For the variant UACGUAGGUGGUUUUCCCCUGGUAGUGCUAAGGGGGCCUGGAAGUUUGGACUGGGCAGAGCUCAACACAGCGUGGCCAAGUGGCUGUGGCUAGACUGCCUCUCUGGAUUCCUUGUCACUCAGCAGGGCAUCUCUGAGAGAAAUGCC, the self-cleavage is 1.03.

(Values after the RNAGym collection of RNA variant scans (doi:10.7554/elife.90254).)
